Results on 9 molecules are retold here after patent US20100260668A1 (published 2010).

Assay [1] addresses T1, PlGF (UniProt P49763-2 21-149, limits assumed).
T1 construct: bought antigen coated on the ELISA plate; also called Placental GF
T1 sequence (looked up): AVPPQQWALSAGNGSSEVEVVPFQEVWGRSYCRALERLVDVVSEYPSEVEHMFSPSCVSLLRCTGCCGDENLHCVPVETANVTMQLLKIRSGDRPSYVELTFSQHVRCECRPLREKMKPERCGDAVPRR
In words: direct bind ELISA, N-terminal VD. In general terms: An ELISA detects its analyte on a solid surface through an enzyme-linked reagent.

The target in assay [2] is T2, VEGF (UniProt P15692 27-191, limits assumed).
T2 construct: bought antigen coated on the ELISA plate
T2 sequence (looked up): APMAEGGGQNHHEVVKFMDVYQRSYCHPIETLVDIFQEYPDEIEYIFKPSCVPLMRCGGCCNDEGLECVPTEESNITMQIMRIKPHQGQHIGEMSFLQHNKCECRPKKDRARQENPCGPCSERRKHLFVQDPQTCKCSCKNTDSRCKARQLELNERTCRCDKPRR
In words: direct bind ELISA, C-terminal VD.

Assay [3] concerns the target T3, ErbB3 (ErbB3 ECD/FC Chimera-His tag, R&D 348-RB-050) (UniProt P21860 in part, limits assumed).
T3 construct: extracellular domain; Bought antigen coated on the ELISA plate
The experiment in a line: direct bind ELISA, coated antigen; C-terminal VD of DVD-Ig.

B1: DVD579 (bispecific antibody, human IgG1, kappa)
heavy: QVQLQQSGAELVKPGASVKISCKASGYTFTDYYINWVKLAPGQGLEWIGWIYPGSGNTKYNEKFKGKATLTIDTSSSTAYMQLSSLTSEDTAVYFCVRDSPFFDYWGQGTLLTVSSASTKGPSVFPLAPEVQLVESGGGLVQPGGSLRLSCAASGYTFTNYGMNWVRQAPGKGLEWVGWINTYTGEPTYAADFKRRFTFSLDTSKSTAYLQMNSLRAEDTAVYYCAKYPHYYGSSHWYFDVWGQGTLVTVSS[omitted - human IgG1 constant region]
light: DIVLTQSPDSLAVSLGERVTMNCKSSQSLLNSGMRKSFLAWYQQKPGQSPKLLIYWASTRESGVPDRFTGSGSGTDFTLTISSVQAEDVAVYYCKQSYHLFTFGSGTKLEIKRTVAAPSVFIFPPDIQMTQSPSSLSASVGDRVTITCSASQDISNYLNWYQQKPGKAPKVLIYFTSSLHSGVPSRFSGSGSGTDFTLTISSLQPEDFATYYCQQYSTVPWTFGQGTKVEIKRTVAAPSVFIFPPSDEQLKSGTASVVCLLNNFYPREAKVQWKVDNALQSGNSQESVTEQDSKDSTYSLSSTLTLSKADYEKHKVYACEVTHQGLSSPVTKSFNRGEC
notes: HC linker long, LC linker long; also called DVD-Ig DVD579
One may read the EC50 as the concentration needed to bring the measured effect to its halfway point. Regarding B1, the EC50 was found to be 1.18 nM in assay [1] and 47.9 nM in assay [2].

B2: DVD587 (bispecific antibody, human IgG1, kappa)
heavy: QVQLQQSGAELVKPGASVKISCKASGYTFTDYYINWVKLAPGQGLEWIGWIYPGSGNTKYNEKFKGKATLTIDTSSSTAYMQLSSLTSEDTAVYFCVRDSPFFDYWGQGTLLTVSSASTKGPSVFPLAPEVQLVESGGGLVQPGGSLRLSCAASGYTFTNYGMNWVRQAPGKGLEWVGWINTYTGEPTYAADFKRRFTFSLDTSKSTAYLQMNSLRAEDTAVYYCAKYPHYYGSSHWYFDVWGQGTLVTVSS[omitted - human IgG1 constant region]
light: DIVLTQSPDSLAVSLGERVTMNCKSSQSLLNSGMRKSFLAWYQQKPGQSPKLLIYWASTRESGVPDRFTGSGSGTDFTLTISSVQAEDVAVYYCKQSYHLFTFGSGTKLEIKRTVAAPDIQMTQSPSSLSASVGDRVTITCSASQDISNYLNWYQQKPGKAPKVLIYFTSSLHSGVPSRFSGSGSGTDFTLTISSLQPEDFATYYCQQYSTVPWTFGQGTKVEIKRTVAAPSVFIFPPSDEQLKSGTASVVCLLNNFYPREAKVQWKVDNALQSGNSQESVTEQDSKDSTYSLSSTLTLSKADYEKHKVYACEVTHQGLSSPVTKSFNRGEC
notes: HC linker long, LC linker short; also called DVD-Ig DVD587
Regarding B2, the EC50 came out at 0.13 nM in assay [1] and 12.7 nM in assay [2].

B3: DVD549 (bispecific antibody, human IgG1, kappa)
heavy: QVQLKQSGPGLVQPSQSLSITCTVSGFSLTTYGIHWVRQSPGKGLEWLGVMWSGGDTDYDAAFISRLSISKDNSKSQVFFKMNSLQANDTGIYYCARYRFYGMDYWGQGTSVTVSSASTKGPSVFPLAPEVQLVESGGGLVQPGGSLRLSCAASGYTFTNYGMNWVRQAPGKGLEWVGWINTYTGEPTYAADFKRRFTFSLDTSKSTAYLQMNSLRAEDTAVYYCAKYPHYYGSSHWYFDVWGQGTLVTVSS[omitted - human IgG1 constant region]
light: AIQMTQSSSSFSVSLGDRVTITCKASEDIYNRFAWYQQKPGNAPRLLISGAASLEAGVPSRFSGSGSGQDYTLSITSLQTEDVATYYCQQYWSTPWTFGGGTKLEIKRTVAAPSVFIFPPDIQMTQSPSSLSASVGDRVTITCSASQDISNYLNWYQQKPGKAPKVLIYFTSSLHSGVPSRFSGSGSGTDFTLTISSLQPEDFATYYCQQYSTVPWTFGQGTKVEIKRTVAAPSVFIFPPSDEQLKSGTASVVCLLNNFYPREAKVQWKVDNALQSGNSQESVTEQDSKDSTYSLSSTLTLSKADYEKHKVYACEVTHQGLSSPVTKSFNRGEC
notes: HC linker long, LC linker long; also called DVD-Ig DVD549
B3 registered an EC50 in assay [1] of 265 nM.

B4: DVD400 (bispecific antibody, human IgG1, kappa)
heavy: [omitted - about 120 residues]ASTKGPSVFPLAPEVQLVESGGGLVQPGGSLRLSCAASGFTFSIYSMNWVRQAPGKGLEWVSYISSSSSTIYYADSVKGRFTISRDNAKNSLYLQMNSLRDEDTAVYYCARDRGDFDAFDIWGQGTMVTVSS[omitted - human IgG1 constant region]
light: [omitted - about 100 residues]RTVAAPSVFIFPPDIQMTQSPSSLSASVGDRVTITCQASQDITNYLNWYQQKPGKAPKLLIYDASNLETGVPSRFSGSGSGTDFTFTISSLQPEDIATYNCQQCENFPITFGQGTRLEIKRTVAAPSVFIFPPSDEQLKSGTASVVCLLNNFYPREAKVQWKVDNALQSGNSQESVTEQDSKDSTYSLSSTLTLSKADYEKHKVYACEVTHQGLSSPVTKSFNRGEC
notes: DVD-Ig; HC linker long, LC linker long; also called DVD400H; DVD400L
Molecule B4 registered an EC50 in assay [3] of 7.74 nM.

B5: DVD404 (bispecific antibody, human IgG1, kappa)
heavy: [omitted - about 120 residues]ASTKGPSVFPLAPEVQLVESGGGLVQPGGSLRLSCAASGFTFSIYSMNWVRQAPGKGLEWVSYISSSSSTIYYADSVKGRFTISRDNAKNSLYLQMNSLRDEDTAVYYCARDRGDFDAFDIWGQGTMVTVSS[omitted - human IgG1 constant region]
light: [omitted - about 100 residues]RTVAAPDIQMTQSPSSLSASVGDRVTITCQASQDITNYLNWYQQKPGKAPKLLIYDASNLETGVPSRFSGSGSGTDFTFTISSLQPEDIATYNCQQCENFPITFGQGTRLEIKRTVAAPSVFIFPPSDEQLKSGTASVVCLLNNFYPREAKVQWKVDNALQSGNSQESVTEQDSKDSTYSLSSTLTLSKADYEKHKVYACEVTHQGLSSPVTKSFNRGEC
notes: DVD-Ig; HC linker long, LC linker short; also called DVD404H; DVD404L
For B5, the response in assay [3] was half-maximal at 4.34 nM (EC50).

B6: DVD408 (bispecific antibody, human IgG1, kappa)
heavy: [omitted - about 120 residues]ASTKGPEVQLVESGGGLVQPGGSLRLSCAASGFTFSIYSMNWVRQAPGKGLEWVSYISSSSSTIYYADSVKGRFTISRDNAKNSLYLQMNSLRDEDTAVYYCARDRGDFDAFDIWGQGTMVTVSS[omitted - human IgG1 constant region]
light: [omitted - about 100 residues]RTVAAPSVFIFPPDIQMTQSPSSLSASVGDRVTITCQASQDITNYLNWYQQKPGKAPKLLIYDASNLETGVPSRFSGSGSGTDFTFTISSLQPEDIATYNCQQCENFPITFGQGTRLEIKRTVAAPSVFIFPPSDEQLKSGTASVVCLLNNFYPREAKVQWKVDNALQSGNSQESVTEQDSKDSTYSLSSTLTLSKADYEKHKVYACEVTHQGLSSPVTKSFNRGEC
notes: DVD-Ig; HC linker short, LC linker long; also called DVD408H; DVD408L
As for B6, the EC50 in assay [3] turned out to be 4.37 nM.

B7: DVD541 (bispecific antibody, human IgG1, kappa)
heavy: QVQLKQSGPGLVQPSQSLSITCTVSGFSLTTYGIHWVRQSPGKGLEWLGVMWSGGDTDYDAAFISRLSISKDNSKSQVFFKMNSLQANDTGIYYCARYRFYGMDYWGQGTSVTVSSASTKGPEVQLVESGGGLVQPGGSLRLSCAASGYTFTNYGMNWVRQAPGKGLEWVGWINTYTGEPTYAADFKRRFTFSLDTSKSTAYLQMNSLRAEDTAVYYCAKYPHYYGSSHWYFDVWGQGTLVTVSS[omitted - human IgG1 constant region]
light: AIQMTQSSSSFSVSLGDRVTITCKASEDIYNRFAWYQQKPGNAPRLLISGAASLEAGVPSRFSGSGSGQDYTLSITSLQTEDVATYYCQQYWSTPWTFGGGTKLEIKRTVAAPDIQMTQSPSSLSASVGDRVTITCSASQDISNYLNWYQQKPGKAPKVLIYFTSSLHSGVPSRFSGSGSGTDFTLTISSLQPEDFATYYCQQYSTVPWTFGQGTKVEIKRTVAAPSVFIFPPSDEQLKSGTASVVCLLNNFYPREAKVQWKVDNALQSGNSQESVTEQDSKDSTYSLSSTLTLSKADYEKHKVYACEVTHQGLSSPVTKSFNRGEC
notes: HC linker short, LC linker short; also called DVD-Ig DVD541
As for B7, the EC50 stood at 0.08 nM in assay [1] and 64.4 nM in assay [2].

B8: DVD565 (bispecific antibody, human IgG1, kappa)
heavy: QVQLKQSGPGLVQPSQSLSITCTVSGFSLTTYGIHWVRQSPGKGLEWLGVMWSGGDTDYDAAFISRLSISKDNSKSQVFFKMNSLQANDTGIYYCARYRFYGMDYWGQGTSVTVSSASTKGPEVQLVESGGGLVQPGGSLRLSCAASGYTFTNYGMNWVRQAPGKGLEWVGWINTYTGEPTYAADFKRRFTFSLDTSKSTAYLQMNSLRAEDTAVYYCAKYPHYYGSSHWYFDVWGQGTLVTVSS[omitted - human IgG1 constant region]
light: AIQMTQSSSSFSVSLGDRVTITCKASEDIYNRFAWYQQKPGNAPRLLISGAASLEAGVPSRFSGSGSGQDYTLSITSLQTEDVATYYCQQYWSTPWTFGGGTKLEIKRTVAAPSVFIFPPDIQMTQSPSSLSASVGDRVTITCSASQDISNYLNWYQQKPGKAPKVLIYFTSSLHSGVPSRFSGSGSGTDFTLTISSLQPEDFATYYCQQYSTVPWTFGQGTKVEIKRTVAAPSVFIFPPSDEQLKSGTASVVCLLNNFYPREAKVQWKVDNALQSGNSQESVTEQDSKDSTYSLSSTLTLSKADYEKHKVYACEVTHQGLSSPVTKSFNRGEC
notes: HC linker short, LC linker long; also called DVD-Ig DVD565
Regarding B8, the figures for the EC50 in assay [1] and in assay [2] were 3.24 nM and 498 nM, respectively.

B9: DVD557 (bispecific antibody, human IgG1, kappa)
heavy: QVQLKQSGPGLVQPSQSLSITCTVSGFSLTTYGIHWVRQSPGKGLEWLGVMWSGGDTDYDAAFISRLSISKDNSKSQVFFKMNSLQANDTGIYYCARYRFYGMDYWGQGTSVTVSSASTKGPSVFPLAPEVQLVESGGGLVQPGGSLRLSCAASGYTFTNYGMNWVRQAPGKGLEWVGWINTYTGEPTYAADFKRRFTFSLDTSKSTAYLQMNSLRAEDTAVYYCAKYPHYYGSSHWYFDVWGQGTLVTVSS[omitted - human IgG1 constant region]
light: AIQMTQSSSSFSVSLGDRVTITCKASEDIYNRFAWYQQKPGNAPRLLISGAASLEAGVPSRFSGSGSGQDYTLSITSLQTEDVATYYCQQYWSTPWTFGGGTKLEIKRTVAAPDIQMTQSPSSLSASVGDRVTITCSASQDISNYLNWYQQKPGKAPKVLIYFTSSLHSGVPSRFSGSGSGTDFTLTISSLQPEDFATYYCQQYSTVPWTFGQGTKVEIKRTVAAPSVFIFPPSDEQLKSGTASVVCLLNNFYPREAKVQWKVDNALQSGNSQESVTEQDSKDSTYSLSSTLTLSKADYEKHKVYACEVTHQGLSSPVTKSFNRGEC
notes: HC linker long, LC linker short; also called DVD-Ig DVD557
B9: the EC50 in assay [1] was 0.17 nM; in assay [2], 25 nM.
